Data taken from the RNAGym collection of RNA variant scans (doi:10.7554/elife.90254).
Read counts are not given, so values of variants with three or more changes are uncertain.

B1: LINE1-mini (parent)
chain: GGCAGAGCUCAACACAGCGUGGCAAAGUGGCUGUGGCUAGACUGCC

Variants of: B1
Assay: self-cleavage, relative activity (ratio to wild type); higher = more cleavage; in vitro, sequencing; the parent is a self-cleaving ribozyme

Row | Variant | self-cleavage
1 | C15A G22A G44U | 0.1
2 | C15G A16C A25G C46U | 0
3 | C15G G27U G40U | 0.1
4 | C15G G22A A39C G40U | 0.06
5 | A14U G35U U38C | 0.17
6 | C15A A26U C45G | 0.04
7 | C15A A16C G17C G19A G22C A26G | 0.06
8 | C15A A39U A41U | 0.05
9 | C15G G17A C31A G40U | 0.03
10 | C15A A16C G17U A25C U32C G35A U43G G44A C46U | 0.01
11 | C15G G17C A39G C45U | 0.2
12 | C15G G22A G33C G35U | 0.02
13 | C15G C23A C42U | 0.02
14 | C15A C23A U32A G33A G40A | 0.06
15 | C15G G22U G33C C46A | 0.35
16 | C15G C23U C45G | 0.01
17 | C15A C31U G40A U43A | 0
18 | C15A C18A C37A U38G | 0.02
19 | C15A C37U C46A | 0.05
20 | C15G G19C U28C G30U | 0.02
21 | C15A U20G U34G C45A | 0
22 | C15A G19C G44U | 0.15
23 | C15A G21C G36U C37G | 0.03
24 | C15A G19C U32A | 0.03

Row | Variant | self-cleavage
25 | C15G C23U C46U | 0.02
26 | C15G G35C U43C | 0.04
27 | C15G G17U G21C G35C | 0.04
28 | C15A G33C U34G C45G | 0.12
29 | C15G U20C G29C G33U U38C C42U | 0.09
30 | C15A G30U C31A G33C | 0
31 | C15A A25C G29C U43A | 0.02
32 | C15G G17C G40U | 0.03
33 | C15A G27A G35U | 0.02
34 | C15G A16G G27C | 0.01
35 | C15G C18G C23A G40C | 0.01
36 | C15A A24U A26C C46G | 0.04
37 | C15G A16G C37U U38G C45U | 0.01
38 | A14U G30A A39G | 0.11
39 | C15A G17U C23A U34G | 0.03
40 | C15G G33C A39G C45G C46U | 0.01
41 | C15A A24G G30C G33C | 0.08
42 | C15G A26C C31A U34A G36U | 0.02
43 | C15A G21A C45U | 0.12
44 | C15A C37G A39C G40U | 0.03
45 | C15A C18U G35C | 0.02
46 | A14U G33U C42A | 0.06
47 | C15A G17A C23A | 0.03
48 | C15G G21A G29U U32A | 0.02

Row | Variant | self-cleavage
49 | C15A U28G G29U C42A | 0.04
50 | C15G C23G A25U | 0.03
51 | C15A G27A C37U | 0.04
52 | C15G G17U G22C G27A A41C | 0.04
53 | C15G C37G A39C | 0.05
54 | C15G C31U U32G G35C | 0.02
55 | C15A C23G C42G | 0.01
56 | C15A A16U G33A C37A C45A | 0
57 | A14U U34A G35U | 0.1
58 | C15G G19C G33U C46G | 0.02
59 | A14U G33C C46A | 0.03
60 | C15G C45G C46G | 0.03
61 | C15G G17C C45U | 0.1
62 | C15G G19A G36A G40U | 0.04
63 | C15A A24G G30A G40C C45A | 0.01
64 | A14U G29U G44A | 0.38
65 | C15G G17U G36U | 0.13
66 | C15A G29U G40A | 0.05
67 | C15A A16G U32G C42A | 0.12
68 | C15G C18U C37G C45U | 0.01
69 | A14U G33C C42U G44A | 0.02
70 | C15A A41U C45U | 0.1
71 | C15A G22U C31U | 0.03
72 | C15A C18G G30U G33U | 0.69

Row | Variant | self-cleavage
73 | A14U U20C G40A | 0.01
74 | C15G G27C A39U G44C | 0.01
75 | C15G C18A A25U | 0.01
76 | C15G G40A A41U C45A | 0
77 | C15G C18G A24C G35C C42U | 0
78 | C15G G27U C37G G44C C45U | 0
79 | C15A C31U A41C | 0.02
80 | C15A C23G U32A C46G | 0.03
81 | C15G C23U G27A U38G | 0.01
82 | C15A A16C G17C U38C | 0.06
83 | C15A A25G U43C | 0.08
84 | C15A G17A U43A C46A | 0.02
85 | A14U G35U A39U G40C | 0.03
86 | C15A C31A U43A | 0.03
87 | C15A C31A G35C | 0.07
88 | C15A G19C G29A C42U G44U | 0.07
89 | C15A A25C G35U | 0.03
90 | C15A G22U C42A | 0.14
91 | C15G C23A G27C U28A | 0.34
92 | A14U U32C G40U | 0.07
93 | C15A G22C C31A C42U | 0.01
94 | C15A A41U C46G | 0.03
95 | C15A A24G A26U G30C U34G | 0.01
96 | C15A C18A A24C A41C | 0

Row | Variant | self-cleavage
97 | C15G A24U G29A C31A C37U G40U | 0.01
98 | C15A U34G U38A A39G A41U | 0.01
99 | C15G G29U U32G | 0.01
100 | C15A G40U C42U | 0.05
101 | A14U U20A A25G G29A | 0.15
102 | C15A G33U U38A G44C | 0.02
103 | C15A A26G U28A | 0.03
104 | C15A G29C U32A G44A | 0.06
105 | C15G C18A G33A | 0.02
106 | C15G G21C G40U | 0.04
107 | C15A G21A A24G U34A A41U | 0.12
108 | A14U U34G U43C G44A | 0.02
109 | C15A G22A C31A G40C C42A | 0.01
110 | C15A A16U G40A | 0.28
111 | C15G G22A G33C C46A | 0.15
112 | C15G G22A C23A | 0.06
113 | C15G G17A G19U G22A G35A C37G | 0.02
114 | C15G C23U U32A A39C | 0.01
115 | A14U U34G G40C | 0.07
116 | C15A A25C G29U C37G A41C | 0.02
117 | A14U U28A U32G | 0.06
118 | C15G C23A U28G | 0.06
119 | C15A G27A G44A C45U | 0.04
120 | C15G G22C G29A U38C C46A | 0.01

Row | Variant | self-cleavage
121 | C15G U28G G35A G36U | 0.03
122 | C15A A26G G29U U34A G40U | 0.02
123 | C15A G30U A41U C42A C45G | 0.01
124 | C15A A16C C23G | 0.03
125 | C15A A39U U43G C45U | 0.06
126 | C15A G19A G35A | 0.21
127 | C15A G19A U34G | 0.06
128 | C15A G22C U32A C42A | 0.02
129 | C15A G19C U20C C23U | 0.01
130 | C15A C31A U34C C37G | 0.01
131 | C15G G30U C37U | 0.06
132 | C15G U20G U43C C45G | 0.02
133 | C15A G22U U38C C42U C45U | 0.01
134 | C15A A24U A41G | 0.05
135 | C15A A24C U32G C46U | 0.01
136 | C15G C18A G22C G33A A41U G44C | 0
137 | C15G G36C U43A G44C | 0.01
138 | A14U G30U G36C U38G C45A | 0.03
139 | A14U U20G C23G | 0.14
140 | C15A C18U G27C G33U G36U G40U | 0.06
141 | C15G C23U A41G | 0.1
142 | C15G C23U A41U | 0.01
143 | C15G C23G U32C U34C | 0.01
144 | A14U U34A G40A | 0.08

Row | Variant | self-cleavage
145 | C15A A16C G21A G44U | 0.14
146 | C15G U20C U28A C45A | 0.02
147 | C15G G36U G44A | 0.02
148 | C15G U20C G36U | 0.03
149 | C15A G19U A25U | 0.04
150 | C15A C37A C45U | 0.04
151 | C15G C18A C46U | 0.04
152 | C15A A16U G44C | 0.04
153 | C15A G17C C45G | 0.12
154 | C15A C23A G30C C45A C46U | 0
155 | C15A G17U G22A A26U C42U | 0.05
156 | C15A C18A U43C | 0.01
157 | C15G C31G A39C | 0.02
158 | C15G A25U U34A | 0.04
159 | C15G G22C G30A | 0.03
160 | C15A G17U C45U C46U | 0.04
161 | C15G U20A G44C | 0.04
162 | C15G U20C G21U | 0.02
163 | C15A G17A C45U | 0.02
164 | C15G G22A A24U G27C G40A | 0.02
165 | C15A G17C G29U C46G | 0.01
166 | C15A G17C G19C | 0.03
167 | C15A G17C G19A | 0.03
